Reference: article PMC4336329 (PLoS ONE, 2015)
Screen size: about 310,000 compounds; about 14,000 (4.5%) showed an effect of 50% or more. The effect is printed as a negative number. The list shows a part of the results.

target: human ether-à-go-go-related gene (hERG) potassium channel (human, UniProt Q12809); test: primary screen, population patch clamp on CHO cells stably expressing hERG
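Further: peak tail current of the secondary pulse compared with the same well before compound.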

Chain of human ether-à-go-go-related gene (hERG) potassium channel (Q12809 whole entry, looked up): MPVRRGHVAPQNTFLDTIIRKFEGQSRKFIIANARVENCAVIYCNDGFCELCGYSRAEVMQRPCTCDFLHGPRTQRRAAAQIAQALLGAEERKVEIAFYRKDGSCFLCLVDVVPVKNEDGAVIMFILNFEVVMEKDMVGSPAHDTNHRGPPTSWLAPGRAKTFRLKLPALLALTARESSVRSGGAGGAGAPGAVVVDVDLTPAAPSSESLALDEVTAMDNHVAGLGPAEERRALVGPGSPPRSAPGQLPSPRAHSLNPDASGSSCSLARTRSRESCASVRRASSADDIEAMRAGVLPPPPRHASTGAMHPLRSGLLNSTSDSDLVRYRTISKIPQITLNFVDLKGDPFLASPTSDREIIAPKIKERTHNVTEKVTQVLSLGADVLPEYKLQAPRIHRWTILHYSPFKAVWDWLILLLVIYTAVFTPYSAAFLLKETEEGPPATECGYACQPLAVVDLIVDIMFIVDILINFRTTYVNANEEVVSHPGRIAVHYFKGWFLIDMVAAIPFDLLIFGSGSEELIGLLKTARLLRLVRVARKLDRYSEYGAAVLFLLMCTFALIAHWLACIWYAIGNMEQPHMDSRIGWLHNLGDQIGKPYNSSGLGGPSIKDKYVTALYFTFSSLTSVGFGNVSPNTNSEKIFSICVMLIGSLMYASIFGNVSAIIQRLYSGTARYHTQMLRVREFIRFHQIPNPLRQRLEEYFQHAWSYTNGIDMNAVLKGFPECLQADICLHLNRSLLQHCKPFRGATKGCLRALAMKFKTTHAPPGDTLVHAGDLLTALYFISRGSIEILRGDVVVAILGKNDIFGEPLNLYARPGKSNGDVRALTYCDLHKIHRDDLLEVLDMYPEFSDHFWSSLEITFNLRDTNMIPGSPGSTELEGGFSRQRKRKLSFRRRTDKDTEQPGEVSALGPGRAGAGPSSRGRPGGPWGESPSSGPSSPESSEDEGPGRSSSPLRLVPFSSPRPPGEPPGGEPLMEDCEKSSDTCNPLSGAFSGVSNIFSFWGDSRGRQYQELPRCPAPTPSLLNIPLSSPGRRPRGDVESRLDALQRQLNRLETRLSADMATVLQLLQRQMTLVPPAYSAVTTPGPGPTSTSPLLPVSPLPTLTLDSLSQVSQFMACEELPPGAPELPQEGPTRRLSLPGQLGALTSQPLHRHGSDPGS

Structure (SMILES)	hERG current change (%, negative = inhibition) at 10uM
O=C(NCc1ccccc1)c1ncn[nH]1	-3.43%
COCCNC(C(=O)Nc1cc(Cl)cc(Cl)c1)c1ccccc1 (stereo not shown)	-16.4%
CCc1c(C)c(C#N)c2nc3ccccc3n2c1N(C)C	-4.78%
O=C(N/N=C/c1ccccn1)C12CC3CC(CC(C3)C1)C2	-0.609%
CCn1c(SCC(=O)NCC2CCCO2)nnc1-c1ccc(S(=O)(=O)N2CCN(C)CC2)cc1 (stereo not shown)	8.59%
Cc1ccc(C(C(=O)NCc2ccco2)N(C(=O)CNC(=O)c2cccs2)c2c(C)cccc2C)cc1 (stereo not shown)	6.76%
CC1(C)COC(Nc2ccc(Cl)cc2)=N1	-35.8%
CCCN1CCN(CCCNC(=O)c2cc3c(=O)n(C)c4ccccc4c3n2C)CC1	-14%
CCC(=O)NC(=S)Nc1ccc(S(=O)(=O)NC(C)C)cc1	-10.9%
Cc1nc2cc(C(=O)NCc3cccnc3)ccc2n1-c1ccc(F)cc1F	7.47%
CC(=O)c1cccc(N2C(=NC(=O)COc3ccccc3)SC3CS(=O)(=O)CC32)c1 (stereo not shown)	9.49%
CC(=O)NC(Cc1ccc(F)cc1)C(=O)NC1CCN(C(=O)Nc2cccc(C)c2)CC1 (stereo not shown)	6.17%
C/C(=N\NC(=O)COc1ccccc1-c1ccccc1)c1ccc(O)cc1O	24.7%
CCOC(=O)Cc1csc(NC(=O)c2ccc(S(=O)(=O)N3CCOCC3)cc2)n1	-2.52%
C/C(CC(=O)Nc1cc(Cl)ccc1Cl)=N\NC(=O)c1ccccc1Br	12.8%
COc1ccc(N2C(=O)c3ccc(C(=O)Nc4ccccc4O)cc3C2=O)cc1	23.6%
Cc1ccc(S(=O)(=O)Nc2nsc(N)n2)cc1	1.18%
COc1ccc(/C=N\NS(=O)(=O)c2ccc(Br)cc2)cc1COc1ccccc1[N+](=O)[O-]	11.1%
COC(=O)c1ccc(NC(=O)C23CCC(C)(C(=O)O2)C3(C)C)cc1 (stereo not shown)	14.9%
CN(C)c1ccc(Cl)cc1N.Cl	19.5%

Structure (SMILES)	hERG current change (%, negative = inhibition) at 10uM
Cc1ccc(NC(=O)COC(=O)CCCC2=NS(=O)(=O)c3ccccc3N2)cc1C	14.6%
Cc1cc(-n2cnc(-c3cn[nH]c3C)n2)no1	13.3%
Cc1ccc(C)c(OCCC(=O)NNC(=O)c2ccccc2)c1	-0.158%
CC1CC(CC(=O)NC(=S)Nc2ccccc2Cl)C(=O)O1 (stereo not shown)	8.4%
Cn1c2c(c(=O)n(C)c1=O)C(CC(=O)Nc1ccccc1F)C(=O)N2 (stereo not shown)	19.3%
Cc1nnc(NC(=O)c2ccc(S(=O)(=O)N(C)c3ccccc3)cc2)s1	13.1%
Cc1ccc(S(=O)(=O)NNC(=O)Cc2cccn2C)cc1	11.2%
O=C1COC(c2ccccc2)C2CCCCN12 (stereo not shown)	13.4%
O=c1c2cnn(-c3ccccc3)c2nc(-c2cccs2)n1-c1ccc(Br)cc1	-11.5%
CC(=O)c1sc(NC(=O)c2ccc(COc3ccccc3Cl)o2)nc1C	33.5%
CC(=O)Nc1cc(C(=O)O)ccc1S(=O)(=O)c1ccc(C)cc1	6.18%
CCCC(C(=O)OCC)P(=O)(c1ccccc1)c1ccccc1 (stereo not shown)	-6.54%
COC(=O)Cc1[nH]c(Cl)nc1C(N)=O	4.96%
CCC1(CC)NC(=O)N(CC(=O)OC(C)C(=O)Nc2ccccc2OC)C1=O (stereo not shown)	32.3%
CC(=O)Nc1sc2c(c1C(N)=O)CCCC2	22.8%
O=C(/C=C/NNC(=O)c1ccccc1)c1ccc(Br)cc1	6.88%
CC(=O)N=c1sc2c3ccccc3ccc2n1C	-3.72%
CN(C)CCNC(=O)/C(=N\O)c1ccccn1	16.1%
CC(=O)c1ccc(NC(=O)[C@@H]2CCCN2C2=NS(=O)(=O)c3ccccc32)cc1	2.69%
O=C(Nc1ccc2ccccc2c1)N1C[C@H]2C[C@@H](C1)c1cccc(=O)n1C2	1.15%

Structure (SMILES)	hERG current change (%, negative = inhibition) at 10uM
C=CCN1CC(=O)N2C(C)c3[nH]c4ccccc4c3C[C@H]2C1=O (stereo partly shown)	9.97%
CCOc1ccc(NC(=O)c2cc(S(=O)(=O)N3CCOCC3)cn2C)cc1	6.18%
O=C(O)C1CCCCN1S(=O)(=O)c1ccc(Cl)s1 (stereo not shown)	2.15%
CCN(CC)S(=O)(=O)c1cccc(C(=O)NC(C(=O)NC2=NCCS2)C(C)C)c1 (stereo not shown)	-13.4%
O=S(=O)(c1ccc2c(c1)OCCO2)N1CCNCC1	6.08%
Cc1c(NC(=S)NC(=O)c2ccccc2)c(=O)n(-c2ccccc2)n1C	-21.3%
CC(C)CN1CC(C(=O)O)CC1=O (stereo not shown)	32.5%
CCOc1cc(N2CCOCC2)c(OCC)cc1NC(=O)COC(=O)CCOc1cc(C)ccc1C	-5%
Oc1ccc(C2=NNC(=NCc3ccc4c(c3)OCO4)SC2)c(O)c1	3.29%
O=C1NN(c2ccccc2)C(=O)/C1=C/c1ccc(-c2ccc(C(=O)O)cc2)o1	18.2%
O=C(COc1ccc(Cl)cc1)Nc1ccc(Cc2ccncc2)cc1	-47.7%
O=C(NC(=S)Nc1ccccc1)c1cccs1	23.9%
OCCN1c2ccccc2CCc2ccccc21	12%
O=C(NCCc1ccc(Cl)cc1)Nc1ccc(F)cc1	32%
COCCn1nnnc1C(c1cc2cc(OC)ccc2[nH]c1=O)N1CCC(Cc2ccccc2)CC1 (stereo not shown)	-10.9%
Cc1cc(=O)[nH]c(Nc2ccccc2C)n1	-0.453%
O=C(c1csc2c1CCCC2)n1cccn1	-14.9%
COc1cccc(CNC(=O)COC(=O)CCc2cc(OC)c(OC)c(OC)c2)c1	10.8%
